The other results are listed elsewhere or left out. At the low end of the ranking the order means little.

The target in this assay is T1, GST-Rok (full length) (UniProt O34857).
T1 sequence: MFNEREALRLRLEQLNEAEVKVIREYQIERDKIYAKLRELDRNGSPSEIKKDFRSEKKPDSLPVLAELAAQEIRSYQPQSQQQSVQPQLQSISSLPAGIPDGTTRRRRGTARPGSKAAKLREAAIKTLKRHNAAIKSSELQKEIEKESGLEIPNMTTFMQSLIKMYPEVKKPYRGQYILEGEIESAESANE
Briefly: protein binding microarray.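 Also: rank score from −0.5 (least bound) to 0.5 (best bound).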 The note with it: Rok is a gene silencer of Bacillus subtilis; high values mean tight binding; most listed sequences are background and not binding sites; double strand, one strand shown.
The sequence ATCGGGTA registered a binding signal of 0.101 E-score.

AAGCGCAT: the binding signal is -0.128 E-score. With AAAACTGT the figure was -0.0241 E-score. With AACAGCTG the figure was -0.114 E-score. With CAGATGGA the figure was -0.0806 E-score.

For the sequence GGGCCCCA, the binding signal is -0.367 E-score.

The sequence ATACCCCG came in with a binding signal of -0.0652 E-score.

On to GCAAATAA, for which the binding signal came out at 0.0797 E-score. With CGGGTTAA the figure was -0.0758 E-score; with CCAGGCCG, -0.203 E-score.

As to AGGGCTCG, the binding signal is -0.311 E-score. For AGGTGGCG the value was -0.164 E-score; for CGGCTTGC, -0.137 E-score; for ATAGAATA, 0.356 E-score. As for CTACACGA, the binding signal stood at 0.22 E-score. With AACCTACC the figure was 0.261 E-score. With ATTAACTG the figure was 0.14 E-score. With AGCTTCTG the figure was -0.0196 E-score; with GTAAGTCA, -0.0377 E-score.

Consider TAGACTCA, for which the binding signal was -0.0914 E-score. As for AGGTAGAG, the binding signal was found to be 0.122 E-score.

In turn, ATTGGGCA gave a binding signal of -0.0946 E-score. With CTCACATC the figure was -0.0789 E-score; with GCTAGTTA, 0.337 E-score. With CCCCAAAC the figure was -0.114 E-score; with CGCACATC, 0.118 E-score.

Sequence GACACCTC registered a binding signal of -0.168 E-score. With TAGAGGCA the figure was -0.0316 E-score; with CGAGTTAA, 0.153 E-score; with ACCGGGTA, 0.0353 E-score. For CACCTCCA the value was -0.127 E-score; for CTAGGAAC, -0.0546 E-score; for CTAACTGC, -0.0169 E-score. For ACGGCGGC the value was -0.225 E-score; for CGGTACCG, -0.0707 E-score. As to AGAATGCA, the binding signal was 0.0884 E-score. ATCTTCGA: the binding signal came to 0.116 E-score. With GGGCACCC the figure was -0.421 E-score; with AAAATGGC, 0.0869 E-score; with GCCGGACA, -0.142 E-score. For CATTTCCC the value was -0.245 E-score. On to CCGAGGTA, for which the binding signal amounted to 0.0763 E-score.

On to AAATCGGT, for which the binding signal was 0.0362 E-score. Sequence GAGTTAGC gave a binding signal of 0.0512 E-score. With AGAGGGAA, the binding signal was -0.215 E-score. For ACGCATCC the value was -0.0312 E-score; for ACAGATCG, -0.185 E-score. Sequence GATCCGTA displayed a binding signal of 0.127 E-score. For ATGTCTAA the value was 0.156 E-score. For AAGAACAC the value was -0.118 E-score; for CATCCTCA, -0.17 E-score; for GGAAGCAC, -0.116 E-score. Sequence AGGTCCAC registered a binding signal of -0.218 E-score. ACGGCACC: the binding signal was -0.184 E-score.

Sequence ACCGGCGT yielded a binding signal of -0.171 E-score. For the sequence ATCTCTTC, the binding signal was -0.0167 E-score. For GTGGATAA the value was 0.0153 E-score. CTTAGACA registered a binding signal of -0.177 E-score.

As for CATCTAAG, the binding signal was 0.0719 E-score.

Consider GATGGGAC, for which the binding signal is -0.21 E-score. In the case of CACCCCCC, the binding signal was -0.431 E-score. With TCCTCGCA the figure was -0.117 E-score. With ACGAGTCA the figure was -0.175 E-score. With ATTGAAGG, the binding signal was -0.154 E-score. The sequence CTAAGGTA had a binding signal of 0.184 E-score. For CTTATTCC the value was 0.0398 E-score; for AACCATAG, 0.0557 E-score. With GCGGTGCC the figure was -0.338 E-score; with CATTTCGC, 0.0599 E-score.

AGCCAGAA had a binding signal of -0.231 E-score. For CCTAGTAG the value was 0.233 E-score; for AAGGCATA, -0.00109 E-score; for CGGGACAC, -0.2 E-score. With AATGAGCA the figure was -0.0821 E-score; with AGAACTAC, 0.327 E-score; with ATAAAATA, 0.426 E-score. For GAAATTTA the value was 0.257 E-score; for AATACCTC, 0.0643 E-score; for CTGCGTGC, -0.096 E-score.

With AATCATCC, the binding signal is -0.19 E-score. For ACAGCCAT the value was 0.0912 E-score; for CGAGCGTA, -0.132 E-score; for AATATCCG, 0.19 E-score. For AGAGTCAG the value was -0.00297 E-score; for AGGCTTGC, 0.00461 E-score; for CGCTCAGA, -0.068 E-score.

Regarding CTTGCGCC, the binding signal is -0.391 E-score. Take ATATACAT: the binding signal was determined as 0.302 E-score.

For the sequence CCCGATGA, the binding signal is -0.235 E-score.

On to ACCTAGAC, for which the binding signal stood at 0.0548 E-score. GTCATAGA: the binding signal was -0.0811 E-score. For TCCCCGGA the value was -0.278 E-score; for AAACGAAC, -0.0489 E-score; for CTGCAACC, -0.0202 E-score.

TGACAAAA had a binding signal of 0.0614 E-score. On to ACTATTGC, for which the binding signal turned out to be 0.401 E-score. With AGATGACA the figure was 0.122 E-score; with AAGACTGC, -0.0879 E-score; with AGTGAATC, -0.0713 E-score. For ACAAGCGC the value was -0.0126 E-score; for CCGATCGC, -0.204 E-score. For the sequence GTCGTCCA, the binding signal was -0.219 E-score.

Regarding GTAATCTA, the binding signal was found to be 0.245 E-score. For GAAAAAGA the value was -0.0371 E-score. With AGATTGCG the figure was 0.0888 E-score; with ACCGTTTC, -0.193 E-score; with CGATGAGC, -0.131 E-score. CAAAGCTA had a binding signal of 0.116 E-score. With CCATCCAA the figure was 0.0204 E-score; with ATCCGTGG, -0.381 E-score; with ATCGTACG, 0.123 E-score. For ACCCTTCT the value was -0.185 E-score.

Take TTGCCCAA: the binding signal is -0.068 E-score.

ATGGGCAA came in with a binding signal of -0.107 E-score. The sequence GCCCATCA came in with a binding signal of -0.229 E-score. With GCCTACGC the figure was -0.122 E-score; with CATTTAGA, 0.0489 E-score. Turning to GACGTAGC, the binding signal came out at 0.0184 E-score.

As for TCTAGGAA, the binding signal is -0.0926 E-score. For CGTTAATA the value was 0.296 E-score; for GGTGTAAA, 0.0751 E-score. With GACTGTCC the figure was -0.139 E-score; with GGGGATAC, -0.178 E-score; with AACAATGG, -0.0288 E-score. With CTTTATGA the figure was 0.179 E-score.

AGTCGAGA showed a binding signal of -0.074 E-score.

The sequence CAGTTACA registered a binding signal of 0.24 E-score.

Turning to ACGTGTCG, the binding signal is -0.0685 E-score.

Take ACGGTCAC: the binding signal is -0.0241 E-score. As to GCACTACC, the binding signal was -0.000872 E-score. Consider GCACTTGA, for which the binding signal is -0.166 E-score. AAGGCGTG had a binding signal of -0.143 E-score. For CTATTTAC the value was 0.342 E-score; for CGGAAGAC, -0.147 E-score; for CGTAGTTC, 0.255 E-score.

For the sequence CGGTTCAA, the binding signal is -0.118 E-score.

ACCAGGCG: the binding signal is -0.11 E-score. For CACCTAAG the value was -0.219 E-score. For AGCTACAA the value was 0.205 E-score; for CAGCCGCA, -0.227 E-score. With CCTTTCTA the figure was 0.158 E-score. Sequence ATGCCAGA returned a binding signal of -0.172 E-score. As to AATACTTA, the binding signal amounted to 0.316 E-score. As to ACGGTAAA, the binding signal was determined as 0.349 E-score. With ATAACTGA the figure was 0.206 E-score; with GTCCGAGA, -0.0843 E-score; with CACTCGGA, -0.103 E-score. With AAGTAATT the figure was 0.328 E-score; with CGCCTAAG, -0.126 E-score; with GGGCGACC, -0.447 E-score. With CCGGCCCA the figure was -0.196 E-score.

Turning to GTGATATA, the binding signal is 0.25 E-score. With ACTTTCAG the figure was 0.0674 E-score; with ATAACGCA, 0.155 E-score; with ACCGCGCG, 0.0271 E-score.

In turn, TTAGATAA had a binding signal of 0.251 E-score. With GGCTATGA the figure was -0.078 E-score; with AGCATTGG, -0.186 E-score; with AACCCCCA, -0.396 E-score.

On to AAAGTCGG, for which the binding signal was -0.122 E-score. For CTTCCAAA the value was -0.0355 E-score; for GCTGCACC, -0.361 E-score.

In turn, CTATCTTC returned a binding signal of 0.11 E-score.

TCGGCCCA came in with a binding signal of -0.134 E-score. Turning to AATATTCT, the binding signal turned out to be 0.338 E-score.

Turning to AGCAGACG, the binding signal was found to be 0.136 E-score. For GAGCTATC the value was 0.107 E-score; for ATTTTACA, 0.311 E-score; for CTCTATAA, 0.0692 E-score. Take CCTCTGCA: the binding signal is -0.125 E-score.

TTCATAAA showed a binding signal of 0.127 E-score. With GCAGTCCA the figure was -0.102 E-score.

Source of the values: PMC6212790.
